Data as given in the supplement of paper PMC3334620.
Over roughly 33,000 sequences, “E-score (-0.5 to 0.5)” has its median near -0.016; the highest 2% begin near 0.32. The list shows a part of the results.

target: T1, Stp1 (UniProt B3LFK1); assay: PBM E-score (8-mer binding enrichment) (E-score (-0.5 to 0.5)); higher = stronger / more preferred TF binding; most listed sequences are background and not binding sites; conditions: protein concentration: 200 nM; construct: GST-full length
T1 sequence: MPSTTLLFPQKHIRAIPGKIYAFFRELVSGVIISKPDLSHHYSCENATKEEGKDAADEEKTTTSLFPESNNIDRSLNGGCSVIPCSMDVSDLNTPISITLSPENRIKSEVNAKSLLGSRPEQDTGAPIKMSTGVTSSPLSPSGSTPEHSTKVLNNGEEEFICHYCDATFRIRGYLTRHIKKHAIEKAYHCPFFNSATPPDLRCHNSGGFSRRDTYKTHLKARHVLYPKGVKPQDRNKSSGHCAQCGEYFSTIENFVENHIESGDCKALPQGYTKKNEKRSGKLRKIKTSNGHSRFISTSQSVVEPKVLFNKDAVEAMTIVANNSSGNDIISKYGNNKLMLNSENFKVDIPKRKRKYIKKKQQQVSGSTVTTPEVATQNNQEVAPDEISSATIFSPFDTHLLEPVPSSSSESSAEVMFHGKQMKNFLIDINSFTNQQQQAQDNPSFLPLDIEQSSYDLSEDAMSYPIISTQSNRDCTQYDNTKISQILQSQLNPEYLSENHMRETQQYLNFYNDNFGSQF
Method in brief: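 Universal all-10-mer Agilent arrays, fresh or stripped once, were converted to double-stranded form by primer extension. GST-tagged yeast transcription factors from PURExpress in vitro transcription/translation, full-length or DNA-binding domain only, were applied at about 100-200 nM and detected with fluorescent anti-GST. After masliner normalisation, the Universal PBM Analysis Suite scored each ungapped eight-base word together with its reverse complement by E-score.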

Sequence | PBM E-score
AAAAGAAG | 0.19
GAACTTGA | 0.0834
ACGGACCG | 0.0517
ATGCTTTC | -0.0285
TAGTCGGA | -0.00577
AACGAGAA | 0.00842
AACGAAAA | 0.0335
CTTACGTA | 0.12
CTAACTCC | -0.32
TTATCGAA | 0.133
ATCGTAGA | -0.178
TACCTACA | 0.0258
AACTTTCC | -0.161
ACTAACCG | -0.00647
ATAAGAAA | 0.143
ACCCGAGT | -0.0668
GATTAACA | 0.266
ACAAAGCG | 0.217
GCTAGCGA | -0.106
ACGGAGAC | 0.0753
AAGTTATA | 0.21
GGCGTATA | 0.129
ATGCTAGA | -0.0708
ACCGAACC | -0.247
TCATTAGA | 0.0907

Sequence | PBM E-score
AGACCTGG | -0.232
TCGCGCCA | 0.132
ATTACTAC | -0.161
ATTAGCAG | 0.0629
CCATTGGC | -0.217
AGTTTCGA | -0.118
CGTAGGAA | -0.0469
ACAGCCGT | 0.354
TCTAGTAA | 0.252
CATCCTGG | -0.057
ATTACCGG | -0.165
ATGGATGG | -0.185
CGGCTCGA | 0.252
CGACGTCC | -0.0499
CAGGGTTA | -0.166
ACTGTCAC | -0.0761
AGACATCA | -0.0861
AGGTGTTA | -0.063
AACATTGG | -0.281
GCTCGAGA | -0.105
ACGACGCT | -0.195
ACAATAAA | 0.0704
CCCGTTAA | -0.15
ATAGCTAC | -0.198
GCCGTTGA | 0.383

Sequence | PBM E-score
GCTTATGA | -0.114
GGCCATGA | -0.115
GTTGTACA | 0.162
CGCATCCA | 0.167
GTAGTGAC | 0.01
GGCTGTAA | 0.0912
AGGCATTA | 0.228
CATCGACG | 0.0261
AAGGGTCG | 0.0331
GAGAACGA | -0.186
CGGGGTCC | -0.174
GCTCGATA | 0.118
AGATCTCA | -0.117
TCTGAAGA | -0.0345
CGATTATC | -0.115
AAACAACA | -0.00459
ATAATTTG | 0.128
ACGCCACC | -0.175
CGGGGATA | -0.202
CCACATCG | -0.069
AAGTTGTA | 0.131
TCTCTGCA | -0.181
ACACGGCC | 0.344
CCAACCAA | 0.00122
TCGTAAAA | 0.208

Sequence | PBM E-score
CGCTGAGC | 0.0483
CCTACGAC | -0.165
TCATGCCA | 0.165
CTATGGCA | 0.159
CCTCTGCA | -0.00163
ACTAGCCG | -0.0183
AGGCGGTG | -0.0908
CAGCCCTC | -0.34
TCTTTTAA | 0.0818
ATGGCACA | 0.229
CCGTTGAG | 0.00872
CTCTCCAA | 0.0128
GACCGAAA | -0.0567
AGTTGGGC | 0.0109
GGTTTTTA | -0.027
CAAAAGTA | 0.188
AAGTCTCG | -0.199
CCGGAGGA | -0.435
ATGGGCTA | -0.0321
ACTAACTA | -0.217
ACCGTAAG | 0.12
CCGCGGGA | 0.218
ATCCTTCG | -0.0628
CACGATTA | -0.00784
CGCGACCA | 0.031

Sequence | PBM E-score
GGTGGGTA | -0.0905
AGTCTGAC | -0.271
GATGGCAC | 0.196
AAAACTGA | -0.0972
CTAACGCA | 0.0301
GAGTCCAC | -0.128
ATTGCGGA | 0.00404
CCGCAAGG | 0.172
CACACGAG | 0.0133
ATTTTGTA | 0.202
AGATTATA | 0.00022
AAACACGA | -0.0347
ATTCTCCG | 0.0629
CAGCTTCA | -0.13
TCAGCGAA | -0.0708
ACTCGAAT | -0.0603
CGTAGCGA | 0.0452
TTATCAAA | 0.224
AAGAAGCA | -0.102
GCGCTACC | -0.113
ATTTAATA | 0.241
AAATGGAA | -0.0376
GCGAGGCA | 0.439
TATGAACA | 0.0517
AAGACGCT | -0.13

Sequence | PBM E-score
CACAAAAG | 0.212
CAGGGCTC | -0.191
CAGCCACC | -0.095
GTGAGGTA | -0.0324
CTCAGACC | -0.228
AGTAATAT | 0.117
CTAATCGC | 0.0179
CGAGAAAA | -0.077
GACAATAC | 0.213
TAAGATGA | 0.0182
ATCCGTAG | 0.112
CTGCAATC | 0.0171
CTACAGTA | 0.0384
CTGTCAGA | -0.114
CCTCGACA | 0.0231
AGCGTTAC | -0.126
GGAAATAC | -0.0887
AGTCCGAC | -0.182
AGAACGGA | 0.102
ATGGAGAA | 0.0747
CACCGTAA | 0.00961
ATATAGAC | 0.0693
ACGCAACG | 0.236
CCCCAGAC | -0.31
CATCTCTC | -0.0636

Sequence | PBM E-score
AAAACTCG | 0.0696
TCACTGAA | -0.068
CCTGCGCC | 0.295
CCCAGGTC | -0.339
ATTCTTAC | 0.0192
ATTAGAGG | -0.0638
AGTCGTTC | -0.115
AGATGGAT | -0.148
CACCTCGA | 0.0971
ACTCAAAA | 0.18
AGAACTCA | -0.113
ATAAAGGC | 0.00184
ACCCGTAC | 0.0646
AGGCGGGC | -0.0735
ACATGTCA | 0.0247
AATTAGAA | -0.0118
CGGGTCTA | -0.00926
AGTAGTGG | 0.0284
ACTGACCC | -0.246
GCCCCGGA | -0.142
GCAACCCA | -0.0504
ACACGCAA | 0.0159
TAGGATCA | -0.146
AACGCGAG | -0.0531
AAACACTT | -0.0497

Sequence | PBM E-score
ATGTCAAA | 0.0322
GACACTTA | -0.00223
GCTGCAGA | 0.036
GTTATTAA | 0.168
AACTGCAG | -0.00144
GGCGCACC | -0.0445
CCAAACCA | -0.0602
AGACGTAT | 0.0489
AGTGATCA | -0.0602
CAGACACC | -0.135
CAAAGTGA | 0.0308
CAACCCCA | -0.0817
AGTTTGAT | 0.0118
CTAGTCCA | -0.103
CCCGACCG | -0.289
GAATCGGA | 0.122
GGCAACGA | 0.239
CGAAGGGA | -0.126
ACGATACG | 0.109
CGGTCTCC | -0.179
CCGCGGAA | 0.183
CCCGGACC | -0.157
CACCGTGC | 0.255
AACTGCAA | -0.0173
ATGTTCCC | -0.107

Sequence | PBM E-score
TCAGTACA | 0.0749
GCCGTGCC | 0.487
AATACCGT | 0.171
CTCTGACA | -0.0167
AGCACCAC | -0.134
CTACGAAA | -0.00866
CATAAAGA | 0.0776
CGACAATC | -0.161
AGGAAAGC | -0.151
ACTAAAGT | -0.0712
AGTCTTCC | -0.0735
GGTGAGAC | -0.138
GAATTTGC | 0.1
CGGATGCA | -0.0536
ACCCCTAG | -0.233
ACGTATAA | 0.113
ATTCCAGC | 0.0208
CCCCGTCA | -0.177
ATAGGCGC | 0.161
